The campaign covered roughly 420,000 compounds. About 64,000 (15%) were called active. This list was built around the results that the source calls inconclusive (neither active nor inactive); the mix of calls is not that of the screen. The call rests on the fitted dose curve; in most records, active means well fitted inhibition curve with a large enough effect; inconclusive means small, poorly fitted or top-dose-only effect; inactive means flat fitted curve, though single readings scatter. Potencies of inconclusive entries are left out as doubtful fits.
Assay: qHTS for Inhibitors of human tyrosyl-DNA phosphodiesterase 1 (TDP1): qHTS in cells in absence of CPT; further: nearly all actives have a fitted effect of over 55% in size
Conditions: DT40 Tdp1-/- hTDP1 cells, no CPT, ATP luminescence, 48 h; activity change, negative = growth inhibition: at 46.2 µM (top of the series) unless noted
Procedure, shortened: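 Chicken DT40 Tdp1-/- cells complemented with human TDP1, screened without camptothecin (DMSO vehicle only), 400 cells/well. Compounds pin-transferred, cells incubated at 37 °C for at least 48 hr. Growth read as ATP-dependent luminescence (CellTiter-Glo, 30 min at RT).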
On the % scale 0 is the no-effect control and ±100 the full control effect; potency means the concentration at half of the fitted maximal effect; tags describe the fitted curve by direction and shape.

| SMILES | activity change, negative = growth inhibition | Potency |
| --- | --- | --- |
| COc1ccc(C(=O)NCC(=O)OCC(=O)Nc2sccc2C#N)cc1OC | inactive: -5.56% | – |
| CCCCCn1nnnc1C1(C)CCC(=O)N1Cc1ccco1 (stereo not drawn) | inactive: -21.2% | – |
| CCN(CC)S(=O)(=O)c1cc(-c2onc(C)c2C)ccc1OC | – | inconclusive [inhibitor, single point] |
| COc1ccc(CCCc2nnc(SCC(=O)Nc3ccc(C)cc3C)o2)cc1 | – | inconclusive [inhibitor, single point] |
| O=C(CSc1nccn1Cc1ccc(F)cc1)Nc1ccc2c(c1)OCCO2 | inactive: -1.2% | – |
| COC(=O)c1ccc(CSc2nnc(Nc3cccc(OC)c3)s2)o1 | – | inconclusive [inhibitor, partial curve] |
| Cc1nnc(NC(=O)c2oc3c(ccc4ccccc43)c2C)s1 | – | inconclusive [inhibitor, single point] |
| CCN(CC)c1ccc(/C=N\N2CCN(Cc3ccc(C)cc3)CC2)cc1 | – | inconclusive [inhibitor, single point] |
| CCCNC(=O)CSc1nc2nc(C)c(Cc3ccccc3Cl)c(C)n2n1 | – | inconclusive [inhibitor, single point] |
| O=C(Nc1ccccc1)N1CCCC2(CCN(C(=O)c3cc(C(F)(F)F)cc(C(F)(F)F)c3)CC2)C1 | – | inconclusive [inhibitor, single point] |
| Cc1ccc(NC(=O)COC(=O)CN2CCSC2=O)cc1F | inactive: 9.29% | – |
| Cc1cc(Br)ccc1NC(=O)c1cnc(N2CCN(c3ccccn3)CC2)c2ccccc12 | – | active: 13 µM |
| O=c1cc(O)c2sc3nc(-c4cccnc4)cc(C(F)(F)F)c3c2[nH]1 | – | inconclusive [inhibitor, single point] |
| CCN(C(=O)CN1CCN(C)CC1)c1cccc2ccccc12 | inactive: -1.14% | – |
| COc1ccc(N2CCN(CC(=O)Nc3ccccc3C(=O)NCc3ccccc3)CC2)cc1 | – | active: 18.4 µM |
| CN(C(=O)CSc1nnc(C2CC2)n1C)C1CCCc2ccccc21 (stereo not drawn) | inactive: 6.04% | – |
| COC(=O)CSc1nnc(CNC(=O)c2cccs2)n1-c1cccc(C)c1 | inactive: -27% | – |
| CC(Oc1ccccc1)C(=O)NC1CC(C)(C)NC(C)(C)C1 (stereo not drawn) | inactive: 1.48% | – |
| Cc1ccc(O)c(-c2cc(-c3cccc(F)c3)n[nH]2)c1 | – | inconclusive [inhibitor, single point] |
| Cc1ccc(F)cc1NC(=O)c1c(-c2ccccc2)noc1C | – | inconclusive [inhibitor, single point] |
| Nc1ccn([C@@H]2O[C@H](C(=O)NCC(F)(F)F)[C@@H](O)[C@H]2O)c(=O)n1 | inactive: 8.25% | – |
| CCC1CN(CCNC(=O)c2cccnc2OC)Cc2cc(OC)ccc2O1 (stereo not drawn) | – | inconclusive [inhibitor, single point] |
| CN(C)Cc1c(OC(=O)c2ccc(N)cc2)ccc2ccccc12 | inactive: -26.5% | – |
| Cc1cc(Cn2nc(C(=O)NCC3CC3)cc2-c2ccccc2)on1 | – | inconclusive [inhibitor, partial curve] |
| Cc1ccccc1Nc1nc(=O)c2cc([N+](=O)[O-])ccc2s1 | – | inconclusive [inhibitor, partial curve] |

| SMILES | activity change, negative = growth inhibition | Potency |
| --- | --- | --- |
| CCC(C)(C)c1ccc(Oc2ccc(N)cc2)cc1 | – | inconclusive [inhibitor, single point] |
| Cc1ccc2cc(CN(CCCO)S(=O)(=O)c3cccc4nsnc34)c(=O)[nH]c2c1 | inactive: -16.4% | – |
| O=C(CCNS(=O)(=O)c1ccccc1)Nc1ccccc1 | inactive: 12.5% | – |
| CCCCN1C(=O)C(CC(=O)NCCN2CCOCC2)CC(C(=O)N(C)C)=C1C (stereo not drawn) | inactive: 3.55% | – |
| CCN(CCNC(=O)C1CCN(S(=O)(=O)c2cccc3nsnc23)CC1)c1ccccc1 | – | inconclusive [inhibitor, single point] |
| CN(C)S(=O)(=O)c1cccc(-c2csc(N/N=C/c3ccco3)n2)c1 | – | inconclusive [inhibitor, single point] |
| CCn1c(C)c(C(C)=O)c(N2CCN(c3ccccc3)CC2)nc1=S | inactive: -9.33% | – |
| CC(C)Nc1ncnc2c1ncn2[C@H]1CN(Cc2ccc(Cl)cc2)C[C@@H](CO)O1 | – | inconclusive [inhibitor, single point] |
| CCCC(CCC)C(=O)Nc1ccc2c(c1)N(C(=O)CCN1CCN(C)CC1)c1ccccc1CC2 | – | inconclusive [inhibitor, single point] |
| O=S(=O)(NCCc1nc2ccccc2[nH]1)c1ccccc1 | inactive: -29.4% | – |
| O=C(C1CC(=O)N(c2ccc(Cl)cc2)C1)N1CCN(Cc2ccc3c(c2)OCO3)CC1 (stereo not drawn) | – | inconclusive [inhibitor, single point] |
| CN1CCN(S(=O)(=O)c2ccc(SCCOc3ccc(Cl)cc3)nc2)CC1 | – | active: 16.4 µM |
| Cc1ccc(N(C)C(=O)c2cnc(N3CCOCC3)c3ccccc23)cc1C | – | inconclusive [inhibitor, single point] |
| Oc1c(Br)cc2oc3c(c2c1CNCc1ccccc1)CCCC3 | – | inconclusive [inhibitor, single point] |
| CC(C)C(C(=O)Nc1nccs1)c1ccc(Cl)cc1 (stereo not drawn) | – | inconclusive [inhibitor, single point] |
| O=C(c1ccc(F)cc1)n1c(=S)nc2ccccn21 | – | inconclusive [inhibitor, single point] |
| CCCCCCn1c(SCCCC)nc2c1c(=O)[nH]c(=O)n2C | – | inconclusive [inhibitor, partial curve, poor fit] |
| O=C(CS(=O)(=O)c1ccccc1)Nc1ccc(S(=O)(=O)Nc2ccccn2)cc1 | inactive: -3.21% | – |
| COc1ccc(-n2cnnc2SCC(=O)c2cc(C)n(Cc3cccs3)c2C)cc1 | inactive: -11% | – |
| CC(C)Cn1[nH]c2c3c(ccc2c1=O)C(=O)c1ccccc1C3=O | – | active: 16.4 µM |
| CCCc1ccc(OCC(O)CN2CCN(c3ccccn3)CC2)cc1 (stereo not drawn) | inactive: 13.4% | – |
| CC(C)(C)c1cc(NC(=O)COC(=O)c2ccccc2)n(-c2ccccc2)n1 | – | inconclusive [inhibitor, single point] |
| c1ccc(-c2nc3ccccc3c3nncn23)cc1 | – | inconclusive [inhibitor, single point] |
| Cc1oc2c(c(C)cc3oc(=O)c(CC(=O)N[C@@H](CCCNC(N)=O)C(=O)O)c(C)c32)c1C | inactive: -17.6% | – |
| C=CCn1c(=O)c2c(nc3n2CC(C)CN3c2cccc(OC)c2)n(C)c1=O (stereo not drawn) | inactive: -28.8% | – |

| SMILES | activity change, negative = growth inhibition | Potency |
| --- | --- | --- |
| Clc1cccc(-n2ncc3c(NC4CCCCCC4)ncnc32)c1 | – | inconclusive [inhibitor, single point] |
| CCc1ccc(/C=C2/C(=O)NC(=O)N2C(C)=O)cc1 | inactive: -22.6% | – |
| OC1NC(=S)N(c2ccccc2)C1O (stereo not drawn) | inactive: -1.28% | – |
| Fc1ccccc1N1CCN(c2ncnc3c2nc2n3CCCC2)CC1 | – | inconclusive [inhibitor, single point] |
| O=C(Nc1cccc(Cl)c1)Nc1ccon1 | inactive: -27.9% | – |
| COc1ccc(CCNC(=O)CCCCn2c(=O)c3ccccc3n(Cc3ccccc3)c2=O)cc1OC | – | active: 20.6 µM |
| Cc1ccc(C)c(OCc2n[nH]c(=S)o2)c1 | inactive: -13.6% | – |
| CCOC(=O)[C@]12CCCC=C1N(CCC1=CCCCC1)C(=O)[C@H](CC(=O)NCCCCc1ccccc1)C2 | – | inconclusive [inhibitor, single point] |
| O=C1C2CCCCN2C(=O)N1CCN1CCN(c2ccc([N+](=O)[O-])cc2)CC1 (stereo not drawn) | – | inconclusive [inhibitor, full curve, poor fit] |
| Fc1ccccc1Nc1nc(-c2ccncc2)nc2ccccc12 | – | inconclusive [inhibitor, single point] |
| CCc1ccc(CN(Cc2ccco2)C(=O)c2cc(-c3ccc(C)c(F)c3)on2)cc1 | – | inconclusive [inhibitor, single point] |
| CN1CCC(=O)N([C@H](CSc2ccc(Br)cc2)c2ccccc2)CC1 | – | inconclusive [inhibitor, single point] |
| CCOc1ccc(NC(=O)Cn2cc(C(=O)c3ccc(C)cc3)c(=O)c3cc4c(cc32)OCO4)cc1 | inactive: -6.99% | – |
| Cc1ccc(NC(=O)CSc2nc(N)c3cc4c(nc3n2)CCCC4)cc1 | – | inconclusive [inhibitor, single point] |
| OCCNc1ncnc2c1ncn2[C@H]1CN(Cc2ccc(-c3ccccc3)cc2)C[C@@H](CO)O1 | – | inconclusive [inhibitor, single point] |
| OC(COCC1COc2ccccc2O1)CN1CCN(c2ccccc2F)CC1 (stereo not drawn) | – | inconclusive [inhibitor, partial curve] |
| Cc1cc(OCC(=O)Nc2ccc(CN3CCOCC3)cc2)c2c(C)cc(=O)oc2c1 | – | active: 11.6 µM |
| CN(CC(=O)Nc1ccccc1Br)C(=O)CN1CCN(Cc2ccc(Cl)cc2)CC1 | – | inconclusive [inhibitor, single point] |
| CCCCN(C)c1nnc(NC(=O)Nc2ccc(Br)c(C)c2)s1 | – | inconclusive [inhibitor, single point] |
| COc1ccc2c(c1)[C@H]1[C@H](CO2)[C@H](c2ccccc2)[C@]2(C)C(=O)Nc3ccc(Br)cc3C(=O)N12 | – | inconclusive [inhibitor, single point] |
| COc1cc(NC(=O)COc2ccccc2[N+](=O)[O-])ccc1NC(=O)c1cccs1 | – | inconclusive [inhibitor, single point] |
| O=[N+]([O-])c1ccc(N2CCCCC2)cc1NCCOc1ccccc1 | – | active: 18.4 µM |
| CCOC(=O)N1CCN(Cc2nc(-c3cccc(Cl)c3)no2)CC1 | – | inconclusive [inhibitor, partial curve] |
